In PubChem BioAssay AID894 (National Center for Advancing Translational Sciences (NCATS), 2007):
Among all 150,000 compounds or so, about 6,500 (4.3%) were called active. Inconclusive means that the source gave no clear call. Such entries were picked first, then a sample of the others. Calls follow the shape of the dose curve; as a rule, active = well fitted inhibition curve with a large enough effect (not every such curve was filed as active); inconclusive = small, poorly fitted or top-dose-only effect, or another doubt; inactive = no such curve, though single readings can be large or run the other way. Potencies of inconclusive entries are left out as doubtful fits.

Target: 15-hydroxyprostaglandin dehydrogenase [NAD(+)] (Homo sapiens) (UniProt P15428)
Assay: qHTS Assay for Inhibitors of HPGD (15-Hydroxyprostaglandin Dehydrogenase)
Details: purified HPGD, NADH fluorescence kinetic, PGE2 substrate; activity change, negative = inhibition: hits give low values
Summary of the method: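 NADH formation kinetics: reaction with 30 uM PGE2 and 1 mM NAD+ (final), 20 nM enzyme, Tris-HCl pH 8 with Tween 20, after 15 min compound preincubation at room temperature. Fluorescence change, last versus first of five reads.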
% is scaled to controls: 0 for no effect and ±100 for the full control effect; potency is read from the fitted curve at half-maximal effect; tags tell the direction and shape of the fitted curve.

UniProt P15428, sequence (P15428 whole entry, looked up): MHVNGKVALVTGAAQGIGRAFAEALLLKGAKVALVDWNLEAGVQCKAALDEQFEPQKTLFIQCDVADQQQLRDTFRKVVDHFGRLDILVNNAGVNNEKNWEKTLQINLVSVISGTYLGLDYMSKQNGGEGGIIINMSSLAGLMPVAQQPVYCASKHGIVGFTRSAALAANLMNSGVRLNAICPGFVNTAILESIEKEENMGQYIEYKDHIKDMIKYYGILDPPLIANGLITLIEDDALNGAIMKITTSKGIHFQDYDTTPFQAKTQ

Structure (SMILES) | Potency | activity change, negative = inhibition
Cc1nc(/C=C/c2ccccc2)cc(/C=C/c2ccccc2)n1 | inconclusive [inhibitor, partial curve] | –
NC[C@@H]1O[C@@H](O[C@H]2[C@H](O)[C@@H](O[C@@H]3O[C@@H](CO)[C@H](O)[C@@H](N)[C@@H]3O)[C@H](N)C[C@@H]2N)[C@@H](O)[C@H](O)[C@H]1O | – | inactive: -16.5%
Cc1cc(C(=O)CN2CCCCC2)c(C)n1-c1ccc(F)cc1 | inconclusive [inhibitor, partial curve, poor fit] | –
CCN(CC)C(=O)C1CCN(CC2CC=CCC2)CC1 (configuration not stated) | – | inactive: 2.26%
CCOC(=O)C1C(C(C)=O)=C(c2ccccc2)c2ccccc2N1S(=O)(=O)C(F)(F)F (configuration not stated) | inconclusive [inhibitor, partial curve] | –
COc1cccc(-n2nnc3c(=O)n(CC(=O)OCc4ccccc4)cnc32)c1 | inconclusive [inhibitor, partial curve] | –
COC(=O)c1ccccc1NC(=O)Nc1ccc(C(=O)N2CCCC2)cc1 | – | inactive: -20.6%
CCOC(=O)c1cc2c(=O)n3ccccc3nc2n(CCCOC)c1=NC(=O)c1cccnc1 | inconclusive [inhibitor, partial curve] | –
C=CCNC(=O)C(C#N)c1nc2ccccc2nc1N1CCCCCC1 (configuration not stated) | inconclusive [inhibitor, single point] | –
[O-]/[N+](=C\c1ccc(F)cc1)c1ccccc1 | – | inactive: -7.29%
CC(C)OC(=O)c1cc(NC(=S)Nc2ccc([N+](=O)[O-])cc2)cc(C(=O)OC(C)C)c1 | inconclusive [inhibitor, single point] | –
CCOC(=O)c1nc2cc3n(c(CC(C)C)c-2c1C)CC(C)=C3C | inconclusive [inhibitor, single point] | –
CCn1cc(C(=O)Nc2sc(C)c(C)c2C(=O)OC)cn1 | inconclusive [inhibitor, single point] | –
CCN(C(=O)c1cnc(N2CCN(c3ncccn3)CC2)c2ccccc12)c1cccc(Cl)c1 | inconclusive [inhibitor, partial curve] | –
Cc1cc(C)cc(Nc2ccc(C(=O)O)cc2N)c1 | inconclusive [inhibitor, partial curve] | –
N#CC1=C(N)SC(N)=C(C#N)C1c1ccnc2ccccc12 | active: 15.8 µM | –
O=C(NCc1ccco1)C1CC2CCC1C2 (configuration not stated) | active: 15.8 µM | –
Clc1ccc(-n2ncc3c(NCc4ccccn4)ncnc32)cc1 | inconclusive [inhibitor, partial curve] | –
CC(C)c1onc(C(=O)N2CCCCC2)c1[N+](=O)[O-] | active: 14.1 µM | –
Cc1ccccc1OCc1nc2ccccc2c(=O)n1/N=C/c1c[nH]c2ccccc12 | – | inactive: -3.4%
COc1cccc(/C=N/NC(=O)CC(=O)NCCc2ccccc2)c1OC | inconclusive [inhibitor, partial curve] | –
O=C(N/N=C/c1ccc(O)c(O)c1)c1ccc(CSc2cccc3cccnc23)cc1 | inconclusive [inhibitor, partial curve, poor fit] | –
Cc1cc(C)nc(N2CCC(CNC(=O)CCc3ccccc3)CC2)n1 | inconclusive [inhibitor, partial curve] | –

Structure (SMILES) | Potency | activity change, negative = inhibition
CCOc1ccccc1NC(=O)CCSc1nc2n[nH]c(C)c2c(=N)n1-c1ccccc1Cl | inconclusive [inhibitor, partial curve] | –
COC(=O)N1C(/C=C/c2ccc3c(c2)OCO3)=Cc2ccccc2C1CC(C)=O (configuration not stated) | inconclusive [inhibitor, partial curve] | –
Cc1csc(NC(=O)c2ccc(C)c(S(=O)(=O)N3CCCCC3)c2)n1 | – | inactive: -10.6%
CCOc1ccc(Nc2nc(Cc3nnc(SCC(=O)O)o3)cs2)cc1 | inconclusive [inhibitor, partial curve] | –
CCOC(=O)c1[nH]c(COC(=O)CCCOc2ccccc2)c(C(=O)OCC)c1C | – | inactive: -24.4%
COC(=O)c1ccc(OCCn2cnc3ccccc3c2=O)cc1 | – | inactive: -29.1%
CCOC(=O)N1CCC(Nc2c(NCCCN(CC)c3cccc(C)c3)c(=O)c2=O)CC1 | inconclusive [inhibitor, single point] | –
CCCCCCCOC(=O)c1ccc(OC(=O)c2cccnc2)cc1 | active: 22.4 µM | –
O=C(c1ccccc1-c1nc(-c2ccc(F)cc2)no1)N1CCCC1 | – | inactive: -5.66%
COc1cc2c(cc1NC(=O)Nc1ccc(C)cc1)oc1ccccc12 | inconclusive [inhibitor, single point] | –
Oc1oc(-c2ccco2)nc1C=Nc1cccc(Cl)c1 | – | inactive: -1.79%
O=C(Nc1ccc(F)cc1)N1CCN(c2ccc3nnc(-c4ccc(F)cc4)n3n2)CC1 | inconclusive [inhibitor, single point] | –
c1ccc2c3c([nH]c2c1)[C@@H]1[C@H]2CC[C@H]([C@H]4CCCN[C@H]42)N1CC3 | inconclusive [inhibitor, single point] | –
Nc1nc(Cl)cc(N2CCC(c3cc(-c4ccc(Cl)cc4)n[nH]3)CC2)n1 | – | inactive: -6.18%
CC(C)C(=O)Nc1c(C(=O)c2ccc(F)cc2)oc2ccccc12 | inconclusive [inhibitor, single point] | –
COc1ccc(CC2(C)OC(c3ccc(C)cc3)=NN2C(C)=O)cc1 (configuration not stated) | inconclusive [inhibitor, single point] | –
NCCC(O)(P(=O)(O)O)P(=O)(O)O | – | inactive: -9.59%
COc1ccc(NC2=C(c3ccc(OC)cc3)C(=O)c3ccccc32)cc1 | – | inactive: -7.57%
CC(=O)COC(=O)CCc1nc2ccccc2[nH]c1=O | inconclusive [inhibitor, partial curve] | –
O=C(Nc1cccn(Cc2c(Cl)cccc2Cl)c1=O)c1ccccc1Cl | inconclusive [inhibitor, partial curve] | –
Cc1cc(C)c(Nc2cc(S(=O)(=O)O)c(N)c3c2C(=O)c2ccccc2C3=O)c(C)c1 | inconclusive [inhibitor, partial curve] | –
Cc1ccc2nc(NCCCO)nc(-c3ccccc3)c2c1 | inconclusive [inhibitor, partial curve] | –
O=C(N/N=C/c1cn(-c2ccccc2)nc1-c1cccs1)c1ccc(Cl)cc1 | inconclusive [inhibitor, single point] | –

Structure (SMILES) | Potency | activity change, negative = inhibition
O=c1cc(NCc2ccccc2)c2ccccc2o1 | inconclusive [inhibitor, partial curve] | –
COc1cc2nc(N3CCN(C(=O)[C@H]4CCCO4)CC3)nc(N)c2cc1OC | inconclusive [inhibitor, partial curve] | –
CC(=O)c1ccc(NS(=O)(=O)Cc2ccccc2)cc1 | active: 25.1 µM | –
NS(=O)(=O)c1ccc(N2N=C(c3ccccc3)CC2c2ccc(F)cc2)cc1 (configuration not stated) | inconclusive [inhibitor, partial curve] | –
COc1cc2c(cc1OC)CN(Cc1nc3ccsc3c(=O)[nH]1)CC2 | inconclusive [inhibitor, partial curve] | –
O=C(O)CCCCn1c(SCc2cc(=O)n3cc(Cl)ccc3n2)nc2ccsc2c1=O | inconclusive [inhibitor, partial curve] | –
CCCCC(=O)Nc1sc(C(=O)N(CC)CC)c(C)c1C(=O)OC | active: 2.51 µM | –
CC(=O)NCCC(=O)Nc1sc2c(c1-c1nc3ccccc3[nH]1)CCCC2 | inconclusive [inhibitor, single point] | –
CCCCn1c2c(c3ccccc31)CCc1nonc1-2 | inconclusive [inhibitor, partial curve] | –
CC(/C=N/NC(=O)c1ccc2nc(C)[nH]c2c1)=C\c1ccccc1 | inconclusive [inhibitor, partial curve] | –
O=S(=O)(NCc1ccccc1Br)c1cccs1 | inconclusive [inhibitor, partial curve] | –
CCOc1cc(NC(=O)c2ccco2)c(OCC)cc1NC(=O)CCc1ccc(OC)cc1 | inconclusive [inhibitor, partial curve] | –
c1ccc2cc3[nH]c(CN4CCOCC4)nc3cc2c1 | inconclusive [inhibitor, partial curve] | –
Cc1nn(-c2ccccc2)c(C)c1NC(=O)CCl | – | inactive: -8.71%
COCCNC(=O)c1c(N)n(CCC2=CCCCC2)c2nc3ccccc3nc12 | inconclusive [inhibitor, partial curve] | –
C/C(=N/NC(=O)CNC(=O)c1ccccn1)c1ccccc1 | inconclusive [inhibitor, partial curve] | –
CC1(C)CC(=O)C2=C(C1)OC(N)=C(C#N)C2C1C=CCCC1 (configuration not stated) | – | inactive: -24.9%
S=C(NCCCN1CCOCC1)NCCCN1CCOCC1 | inconclusive [inhibitor, single point] | –
COCCn1c(=NC(=O)c2cc3ccccc3oc2=O)sc2cc(S(N)(=O)=O)ccc21 | inconclusive [inhibitor, single point] | –
Cc1ccccc1-n1c(Cn2c(=O)sc3ccccc32)nnc1SCC(=O)NCC1CCCO1 (configuration not stated) | inconclusive [inhibitor, partial curve] | –
CCCCCc1c(C)nc(Nc2nc(C)c3cc(OC)ccc3n2)[nH]c1=O | – | inactive: -6.44%
